Tests used:
[1] = biological target: T1, human PD-L1 (ligand blocking test) (human, UniProt Q9NZQ7 fragment, limits assumed); assay: blocking of B7-1 binding to human PD-L1, PD-L1 1 ug/ml; competitor B7-1
[2] = biological target: T1, human PD-L1 (ligand blocking test); assay: blocking of human PD-L1/PD-1 binding, PD-L1 10 ug/ml; competitor PD-1
[3] = biological target: T2, human PD-L1 (Cat. #10084-H08H, Sino Biological) (human, UniProt Q9NZQ7 fragment); assay: SPR, Biacore X100, 1:1 Langmuir
T2 construct: Bought recombinant protein used in the Biacore test; also called hPDL1; hPD-L1
Protocol: (§1) According to the method in the manual of human anti-capture kit (Cat. A BR-1008-39, GE), the human anti-capture antibody was covalently coupled to biosensor chip CM5 (Cat. #BR-1000-12, GE) so that a certain amount of human PD-L1 (Cat. #10084-H08H, Sino Biological) monkey PD-L1 (Cat. #90251-C08H, Sino Biological), mouse PD-L1 (Cat. #50010-M08H, Sino Biological) were affinity captured. The affinity of PD-L1 antibody reacting with PD-L1 was measured with Biacore X100, GE instrument.

[4] = biological target: T3, monkey PD-L1 (Cat. #90251-C08H, Sino Biological) (monkey (cyno), UniProt G7PSE7 19-239); assay: SPR, Biacore X100, 1:1 Langmuir
T3 construct: Bought recombinant protein used in the Biacore test; also called Monkey (cyno) PD-L1; Cyno PDL1
T3 sequence (G7PSE7 entry or part of it C08H C08H): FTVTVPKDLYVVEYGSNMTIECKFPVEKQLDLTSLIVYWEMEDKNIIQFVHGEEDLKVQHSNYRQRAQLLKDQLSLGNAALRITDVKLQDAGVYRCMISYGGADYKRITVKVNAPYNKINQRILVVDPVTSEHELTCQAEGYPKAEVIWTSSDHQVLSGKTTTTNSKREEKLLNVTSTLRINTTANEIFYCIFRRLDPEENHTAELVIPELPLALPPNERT
Protocol: as §1

[5] = biological target: T4, mouse PD-L1 (Cat. #50010-M08H, Sino Biological) (mouse, UniProt Q9EP73 fragment); assay: SPR, Biacore X100
T4 construct: Bought recombinant protein used in the Biacore test
T4 sequence (Q9EP73 19-238 limits assumed, stated change not applied): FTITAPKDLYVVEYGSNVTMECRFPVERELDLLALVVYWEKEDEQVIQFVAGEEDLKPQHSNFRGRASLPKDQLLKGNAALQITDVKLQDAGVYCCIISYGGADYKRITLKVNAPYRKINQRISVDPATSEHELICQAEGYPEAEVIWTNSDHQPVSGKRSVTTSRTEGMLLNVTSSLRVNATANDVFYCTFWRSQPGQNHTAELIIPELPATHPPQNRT
Protocol: as §1

T1 sequence (Q9NZQ7 19-238 limits assumed): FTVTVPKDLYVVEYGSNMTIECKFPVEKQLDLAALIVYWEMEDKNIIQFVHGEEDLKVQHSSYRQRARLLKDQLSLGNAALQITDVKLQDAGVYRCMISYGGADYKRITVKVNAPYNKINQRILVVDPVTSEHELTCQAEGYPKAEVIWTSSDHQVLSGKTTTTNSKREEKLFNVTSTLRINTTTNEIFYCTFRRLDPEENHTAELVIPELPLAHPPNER

Binder	IC50 [1]	IC50 [2]	Kd [3]	koff [3]	kon [3]	Kd [4]	koff [4]	kon [4]	binding result [5]
HRP00049-IgG1 (antibody, HRP00049-IgG1 is built by analogy) heavy: QVQLQESGPGLVKPSQTLSLTCTVSGGSISNDYWTWIRQHPGKGLEYIGYISYTGSTYYNPSLKSRVTISRDTSKNQFSLKLSSVTAADTAVYYCARSGGWLAPFDYWGRGTLVTVSS[human IgG1 constant region left out] light: DIVMTQSPDSLAVSLGERATINCKSSQSLFYHSNQKHSLAWYQQKPGQPPKLLIYGASTRESGVPDRFSGSGSGTDFTLTISSLQAEDVAVYYCQQYYGYPYTFGGGTKVEIKRTVAAPSVFIFPPSDEQLKSGTASVVCLLNNFYPREAKVQWKVDNALQSGNSQESVTEQDSKDSTYSLSSTLTLSKADYEKHKVYACEVTHQGLSSPVTKSFNRGEC	1.88 ng/mL	0.265 ng/mL							
HRP00049: 9-2 (H2/L10) IgG4(AA)(S228P) (antibody, Parent antibody from WO2017084495A1) heavy: QVQLQESGPGLVKPSQTLSLTCTVSGGSISNDYWTWIRQHPGKGLEYIGYISYTGSTYYNPSLKSRVTISRDTSKNQFSLKLSSVTAADTAVYYCARSGGWLAPFDYWGRGTLVTVSSASTKGPSVFPLAPCSRSTSESTAALGCLVKDYFPEPVTVSWNSGALTSGVHTFPAVLQSSGLYSLSSVVTVPSSSLGTKTYTCNVDHKPSNTKVDKRV[human IgG4 Fc with S228P F234A L235A (EU numbers) left out] light: DIVMTQSPDSLAVSLGERATINCKSSQSLFYHSNQKHSLAWYQQKPGQPPKLLIYGASTRESGVPDRFSGSGSGTDFTLTISSLQAEDVAVYYCQQYYGYPYTFGGGTKVEIKRTVAAPSVFIFPPSDEQLKSGTASVVCLLNNFYPREAKVQWKVDNALQSGNSQESVTEQDSKDSTYSLSSTLTLSKADYEKHKVYACEVTHQGLSSPVTKSFNRGEC			0.186 nM	0.000119 s⁻¹	638000 M⁻¹ s⁻¹	0.187 nM	0.000111 s⁻¹	593000 M⁻¹ s⁻¹	no binding

— patent publication US20200339692A1 (JIANGSU HENGRUI MEDICINE, published 2020)
